Over roughly 81,000 sequences, “one-hybrid fitness for binding NBS DNA” has its median near -0.1; the highest 2% begin near 0.36. The list shows a part of the results.
B1: Caulobacter ParB omega fusion; a variant is named by its letters at X, in order, B8GW30 (parent)
chain: MESVVVGEPGMSEGRRGLGRGLSALLGEVDAAPAQAPGEQLGGSREAPIEILQRNPDQPRRTFREEDLEDLSNSIREKGVLQPILVRPSPDTAGEYQIVAGERAWRAAQRAGLKTVPIMVRELDDLAVLEIGIIENVQRADLNVLEEALSYKVLMEKFERTQENIAQTIGKSXSHVANXMRLLXLPDEVQSYLVSGELTAXHARAIAAAADPVALAKQIIEGGLSVRETEALARKAPNLSAGKSKGGRPPRVKDTDTQALESDLSSVLGLDVSIDHRGSTGTLTITYATLEQLDDLCNRLTRGI

Variants of: B1
Experiment: one-hybrid fitness for binding NBS DNA (the Noc-binding site; scaled: cognate 1, non-cognate 0); higher = stronger binding
Conditions: with NBS DNA site
Method in brief: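 Selection: bacterial one-hybrid in E. coli USO, HIS3 reporter with the site 19 bp from the promoter, 48 hours at 37°C on M9-minus-histidine plus 0.1 mM IPTG and 5 mM 3-AT. Libraries were Caulobacter ParB with four randomised specificity codons, sequenced on Illumina before and after selection. Fitness is the rescaled log change in variant-to-wild-type read ratio, anchored to the cognate and non-cognate sites.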

Variant | one-hybrid fitness for binding NBS DNA
ELDG | ≤ 0.2
NKDW | ≤ 0.2
QVQL | ≤ 0.2
ELGT | ≤ 0.2
PSSP | ≤ 0.2
PECS | ≤ 0.2
DVQT | ≤ 0.2
LPDA | ≤ 0.2
TGES | ≤ 0.2
MLPR | ≤ 0.2
RCWE | ≤ 0.2
NFPA | ≤ 0.2
CSKR | ≤ 0.2
YRVE | ≤ 0.2
AKKR | ≤ 0.2
NIVP | ≤ 0.2
PYVY | ≤ 0.2
ELIR | ≤ 0.2
ISAD | ≤ 0.2
AYSY | ≤ 0.2
IIGR | ≤ 0.2
DGRG | ≤ 0.2
RRCF | ≤ 0.2
MANS | ≤ 0.2
QRHT | 0.789
KLTK | ≤ 0.2

Variant | one-hybrid fitness for binding NBS DNA
LQQC | ≤ 0.2
QIQR | 0.39
SNTF | ≤ 0.2
WMTL | ≤ 0.2
IRVA | ≤ 0.2
LLWG | ≤ 0.2
DTHC | ≤ 0.2
TSKA | ≤ 0.2
IDAR | ≤ 0.2
CALV | ≤ 0.2
MPCI | ≤ 0.2
KAAT | ≤ 0.2
MEPF | ≤ 0.2
VSTS | ≤ 0.2
EMER | ≤ 0.2
AYWC | ≤ 0.2
IHGV | ≤ 0.2
TAAC | ≤ 0.2
PCMY | ≤ 0.2
AEIG | ≤ 0.2
LRNF | ≤ 0.2
LMPC | ≤ 0.2
GMSW | ≤ 0.2
LDYC | ≤ 0.2
ALEF | ≤ 0.2
KCRY | ≤ 0.2

Variant | one-hybrid fitness for binding NBS DNA
RCTG | ≤ 0.2
EAPS | ≤ 0.2
MHFS | ≤ 0.2
GMNS | ≤ 0.2
GHVQ | ≤ 0.2
PAHG | ≤ 0.2
VFES | ≤ 0.2
RYVQ | ≤ 0.2
RNVP | ≤ 0.2
EYSK | ≤ 0.2
QDHQ | ≤ 0.2
MMVR | ≤ 0.2
TDGG | ≤ 0.2
VQTM | ≤ 0.2
TEPR | ≤ 0.2
YQHR | ≤ 0.2
FMDG | ≤ 0.2
WVEH | ≤ 0.2
RYAW | ≤ 0.2
RPEH | ≤ 0.2
PHKN | ≤ 0.2
AGHF | ≤ 0.2
FSLR | ≤ 0.2
HLLR | ≤ 0.2
LTHD | ≤ 0.2
GSPV | ≤ 0.2

Variant | one-hybrid fitness for binding NBS DNA
RACM | ≤ 0.2
QFCF | ≤ 0.2
SIPK | ≤ 0.2
HTMT | ≤ 0.2
ETNI | ≤ 0.2
QARY | 0.499
THRE | ≤ 0.2
QKKK | 0.437
DIRC | ≤ 0.2
YTED | ≤ 0.2
VQSR | ≤ 0.2
YIAT | ≤ 0.2
MHAG | ≤ 0.2
RAQC | ≤ 0.2
VYAV | ≤ 0.2
WLLP | ≤ 0.2
ELYK | ≤ 0.2
RIDW | ≤ 0.2
SVRS | ≤ 0.2
GTDI | ≤ 0.2
TSPM | ≤ 0.2
SQAV | ≤ 0.2
QKSC | ≤ 0.2
AHLQ | ≤ 0.2
MCIS | ≤ 0.2
PHEV | ≤ 0.2

Variant | one-hybrid fitness for binding NBS DNA
YPDC | ≤ 0.2
ILGW | ≤ 0.2
AINF | ≤ 0.2
KAKN | ≤ 0.2
EGTC | ≤ 0.2
WFNC | ≤ 0.2
PSGF | ≤ 0.2
HMST | ≤ 0.2
VFKT | ≤ 0.2
RLKR | 0.686
IYEG | ≤ 0.2
LIEG | ≤ 0.2
YCVS | ≤ 0.2
LMTY | ≤ 0.2
WCLW | ≤ 0.2
GMQY | ≤ 0.2
AGFG | ≤ 0.2
KCAV | ≤ 0.2
VISV | ≤ 0.2
KTTD | ≤ 0.2
MVTC | ≤ 0.2
RLTQ | ≤ 0.2
SHMY | ≤ 0.2
LPKM | ≤ 0.2
PHPF | ≤ 0.2
EHLC | ≤ 0.2

Variant | one-hybrid fitness for binding NBS DNA
AWTG | ≤ 0.2
HAFC | ≤ 0.2
RHHI | ≤ 0.2
TVDF | ≤ 0.2
SRNR | ≤ 0.2
LAHL | ≤ 0.2
LYTP | ≤ 0.2
HCNR | ≤ 0.2
RHTV | ≤ 0.2
TGQW | ≤ 0.2
KINS | ≤ 0.2
QWEV | ≤ 0.2
QPRL | ≤ 0.2
MTIG | ≤ 0.2
REPM | ≤ 0.2
LNAT | ≤ 0.2
NLGT | ≤ 0.2
CLMS | ≤ 0.2
KNST | ≤ 0.2
MHLY | ≤ 0.2
PGGC | ≤ 0.2
KPLF | ≤ 0.2
QDSF | ≤ 0.2

Reference: a collection of fitness landscapes (doi:10.1016/j.celrep.2020.107928)
